Measurements from the supplement of paper PMC3334620.
Whole data set: some 33,000 sequences, median “E-score (-0.5 to 0.5)” near -0.035, cut for the highest 2% near 0.35. This is one part of the list.

These sequences were tested against T1, Pdr3 (UniProt P33200) (assay: PBM E-score (8-mer binding enrichment) (E-score (-0.5 to 0.5)); higher = stronger / more preferred TF binding; most listed sequences are background and not binding sites). Conditions: protein concentration: 200 nM; construct: GST-full length.
T1 sequence: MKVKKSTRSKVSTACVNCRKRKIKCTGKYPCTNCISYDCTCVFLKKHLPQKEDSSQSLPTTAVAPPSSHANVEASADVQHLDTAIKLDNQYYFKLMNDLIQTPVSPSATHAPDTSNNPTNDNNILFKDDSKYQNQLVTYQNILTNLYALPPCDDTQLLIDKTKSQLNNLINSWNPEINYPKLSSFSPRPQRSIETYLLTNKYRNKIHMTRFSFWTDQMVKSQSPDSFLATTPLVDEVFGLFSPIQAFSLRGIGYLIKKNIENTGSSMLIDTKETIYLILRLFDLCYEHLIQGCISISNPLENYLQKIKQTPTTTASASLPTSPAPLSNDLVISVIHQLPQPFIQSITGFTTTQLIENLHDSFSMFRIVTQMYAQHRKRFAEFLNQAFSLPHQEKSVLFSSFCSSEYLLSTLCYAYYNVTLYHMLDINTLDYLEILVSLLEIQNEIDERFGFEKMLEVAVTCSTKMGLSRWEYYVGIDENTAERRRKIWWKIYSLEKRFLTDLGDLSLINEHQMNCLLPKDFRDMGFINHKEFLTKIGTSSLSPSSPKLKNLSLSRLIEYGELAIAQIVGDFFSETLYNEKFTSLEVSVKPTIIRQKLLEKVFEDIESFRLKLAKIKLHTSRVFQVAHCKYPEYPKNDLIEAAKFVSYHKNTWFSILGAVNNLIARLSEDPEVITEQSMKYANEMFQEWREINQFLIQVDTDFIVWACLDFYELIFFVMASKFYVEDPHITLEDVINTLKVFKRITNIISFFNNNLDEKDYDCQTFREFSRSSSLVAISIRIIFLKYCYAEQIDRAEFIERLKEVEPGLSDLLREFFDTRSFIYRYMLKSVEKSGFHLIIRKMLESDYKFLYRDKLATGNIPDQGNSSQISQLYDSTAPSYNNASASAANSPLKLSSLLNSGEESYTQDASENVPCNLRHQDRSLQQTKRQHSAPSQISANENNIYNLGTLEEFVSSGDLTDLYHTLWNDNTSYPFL
Method in brief: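 For each ungapped eight-base word taken together with its reverse complement, the Universal PBM Analysis Suite assigned an E-score. Binding data came from GST-tagged yeast transcription factors, applied at about 100-200 nM, on universal all-10-mer Agilent arrays made double-stranded by primer extension. Fluorescent anti-GST marked bound protein, and scans were normalised with masliner.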

Sequence	PBM E-score
TGGCACAA	-0.108
ATAACTGA	0.00191
CTTCACAC	-0.201
AGGTTCAA	-0.0082
ATAGTAGG	-0.0379
TCGTGGAA	0.175
AAGAAGCC	0.226
CGAGATTA	0.157
GAGTAATA	0.157
ACATTACT	-0.135
AGACTCTC	-0.201
CCATTAAC	0.0654
AGATGCGA	0.0515
CTCCGGGA	0.399
CCAAGAGA	-0.18
AGTTGAAA	-0.0974
CGTTTTGA	-0.058
CCGACAAG	0.184
CCCTCTCC	-0.208
ATATGTGA	-0.153
CCAGTGGA	-0.00745
CATCTGCG	-0.0174
CAAATGAC	-0.232
AATAGCAC	-0.095
GCGTAGTA	-0.095

Sequence	PBM E-score
AACTCAAC	0.0661
GCCAGGCC	0.0597
GTCATCAA	-0.0443
ATGGGATG	-0.0223
ACCTAAGG	-0.205
ATTTTCGC	0.0337
CTGGCACA	-0.324
CACGTTGA	-0.125
GGTTCGGA	0.34
AGCAAACG	-0.0291
ATGAGCGA	0.0929
ATTTAACC	-0.00537
GTTTAGCA	-0.0375
TCTACAGA	-0.149
AAGCGAGA	-0.133
ACCTCGGA	0.357
GCGGCACA	0.168
GACCCGGC	0.294
AGCATCAA	0.0103
ACGTCCGG	0.227
AGTTAGGC	-0.279
AACGTCAT	-0.115
GTCCAACA	-0.0539
CTTATGGC	-0.136
AAGACCGT	-0.0797

Sequence	PBM E-score
TAACTCCA	-0.178
GCGCCTCC	0.0241
CTAGCCGA	0.152
AGTCCCGA	0.147
CTCGCTGC	0.00281
GGGCTTTA	-0.219
CACTTGTC	0.0711
ACGCTGAA	-0.0254
CGAACCCC	0.0316
ATGTTGTC	0.0575
AGGTGCGC	-0.179
CACGACAC	0.0814
CCACAAGA	-0.053
CCGGCGGC	0.325
ATAGCATG	-0.189
GGATAAAA	0.132
AGACACAC	-0.112
TAGACCGA	-0.0359
CCTCATTC	0.00413
GCCTAATA	-0.107
ATGCGTCA	-0.119
ATCGTATG	-0.171
CTATAAAA	-0.111
CCAACGAA	-0.00854
CTGAACCC	0.0316

Sequence	PBM E-score
GCGACAAC	0.043
AAGTAACC	-0.115
GTACTCCA	-0.0975
GAATTCTA	0.0439
GAAGTTCC	0.195
CGAGGAGC	0.026
GCAACTAC	-0.0493
CACGGGCC	0.196
CACGACTA	-0.231
GCTAGCCA	-0.164
GTTACCGA	0.106
CTCTATGC	-0.0609
TAGAACAA	-0.223
AACAACTA	0.0903
TCCAGCGA	-0.0535
AGTGGACA	0.00824
CGGGATAA	0.408
AGTTCAGG	-0.23
CACTAGAA	-0.117
CGAATTTC	0.105
CACCTCCG	0.278
ATCTAGCG	-0.0513
CCTTTGGC	-0.196
CGCGTATA	-0.0408
CGGATTAA	0.242

Sequence	PBM E-score
GTCCGAAC	0.264
AGGGGCAC	-0.293
CACAAACG	0.18
CCGTGGAC	0.274
CTACTCTC	-0.0411
CCATCGCA	-0.136
GGCCTATA	-0.119
AATTTTAG	-0.194
AGTGCGGC	0.131
ATACGCTC	0.0154
ACGAGCAC	-0.0466
ACCTTCAA	-0.254
CCATCTCA	-0.0788
CAAGTCGC	-0.139
AGAAATTG	0.0295
CACCGTAG	-0.14
ACTCCTAT	-0.186
CGCCCGCG	0.314
CGGGTACA	0.113
CGTTGGTC	-0.0933
CCTTTCGC	-0.0377
CTAATACA	-0.107
AAATAACA	0.0634
GCACACGC	-0.133
CCAGAAGC	-0.0512

Sequence	PBM E-score
TAATCTAA	-0.121
GATACGGC	0.014
AGTGGGAT	0.0527
CCTTCCCA	-0.0891
AAGACCCA	0.0318
GTATCATA	0.135
ACGTCAGA	-0.245
CGGTGAAG	-0.194
AAGCCTTC	-0.113
CTGGACTC	-0.177
GCCAAGCA	-0.259
ATAGCCCC	-0.0994
CCATCAAA	-0.138
CAGATCAA	-0.117
ATTCCCTC	0.0857
AAGCGGGT	0.0837
CCTTAAGA	-0.315
GAACAGAA	-0.00888
GTAAAGTA	-0.1
CAAGTGTC	-0.197
AACCAGAG	-0.12
CCAATGTA	-0.147
GCACGACC	-0.0364
AGTTGGAT	-0.0658
CGACATAC	0.0342

Sequence	PBM E-score
GCAGGATA	-0.0657
AGTTACAC	-0.0568
GACGGCAC	0.0758
ATATAGAG	-0.0836
ACCTCCTA	-0.192
CAGAATCG	0.0989
ATTTATAC	0.16
AATTGGCC	-0.0405
GCCTTCCA	-0.186
TATCATGA	-0.238
GACCCGAC	0.21
ACCTTATA	-0.029
CCAAACGG	0.24
ACCTAGAA	-0.107
CGTTACTC	-0.111
CCGGTTAA	0.275
CGCAGGTA	-0.0643
AGCCGGAC	0.345
GGGGAGAA	0.0174
CGCCCCCC	-0.141
ACAATTCA	-0.105
TCCTGTAA	-0.0914
